According to ChEMBL document CHEMBL1201862, “PubChem BioAssay data set” (2004):
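Results reflect a 48-hour exposure of cells in 96-well plates to compound at five concentrations. GI50 is the concentration that inhibits growth by half.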 Calls of active or inactive are those of the source. Rule as the data show it: active = GI50 up to about 1.1 µM and inactive = higher.

tested on: NCI-H322M; assay: DTP human tumour cell line panel, 48 h

| SMILES | GI50 |
| --- | --- |
| COc1ccc(Cc2c3cc(O)c([O-])cc3cc[n+]2C)cc1 | inactive: 21 µM |
| CCC1(OC(C)=O)C(=O)OCc2c1cc1n(c2=O)Cc2cc3ccccc3nc2-1 (configuration not stated) | inactive: 5.15 µM |
| CN1C(=O)CN2C(Cl)(Cl)C2(c2ccccc2F)c2cc([N+](=O)[O-])ccc21 (configuration not stated) | inactive: > 100 µM |
| C=CC[C@@H]1C=C[C@@H](C(=O)OC)n2c(=O)n(-c3ccccc3)c(=O)n21 | inactive: > 100 µM |
| CCOC(=O)C1C(c2ccc3c(c2)OCO3)c2c(n[nH]c2O)CC1(O)OCC (configuration not stated) | inactive: > 100 µM |
| CC(C)(C)NNC(=O)/C(=C/c1ccc([N+](=O)[O-])cc1)NC(=O)c1ccccc1 | inactive: > 100 µM |
| CC(C)(C)OCC1NC(=O)[C@@H]2Cc3c([nH]c4ccccc34)C(c3ccccc3)N2C1=O (some centres not stated) | inactive: > 50 µM |
| COc1ccc(NC(=O)CCc2cc(-c3ccc(O)c(OC)c3)nc(NC#N)n2)cc1 | inactive: > 100 µM |
| O=C(N/N=C/C=C/c1ccc([N+](=O)[O-])o1)c1ccc(Br)s1 | inactive: > 100 µM |
| O=C(CC(O)(C(F)(F)Cl)C(F)(F)Cl)CC(O)(C(F)(F)Cl)C(F)(F)Cl | inactive: 2.06 µM |
| COc1ccc([C@@]23Oc4cc(OC)cc(OC)c4[C@]2(O)[C@H](O)[C@H](C(N)=O)[C@H]3c2ccccc2)cc1 [DIDESMETHYLROCAGLAMIDE] | active: < 0.01 µM |
| N#Cc1c2c([nH]c(=O)c1C#N)CCCC2 | inactive: > 100 µM |
| Cc1cc(=O)oc2cc(O)ccc12 [HYMECROMONE] | inactive: > 100 µM |
| NNC(=O)/C(NC(=O)c1ccccc1)=C(\N)c1cccc([N+](=O)[O-])c1 | inactive: > 100 µM |
| CCCCOc1ccc(OCCCCCCCCCC[N+](C)(C)C)cc1 | inactive: 9.06 µM |
| O=C1/C=C(/c2ccc(O)cc2)[C@@H](OC2OC(CO)C(O)C(O)C2O)Cc2ccc(O)cc2O1.O=C1/C=C(/c2ccc(O)cc2)[C@H](O)Cc2ccc(O[C@@H]3OC(CO)C(O)C(O)C3O)cc2O1 (some centres not stated) | inactive: > 100 µM |
| CN1N=C(c2ccncc2)OC1c1ccc(C(F)(F)F)cc1 (configuration not stated) | inactive: > 100 µM |
| CC(=O)N(C)SCC(NC(=O)C(Cc1ccccc1)NC(=O)OCc1ccccc1)C(=O)NC(Cc1ccccc1)C(=O)NC(Cc1cn(C=O)c2ccccc12)C(=O)NC(CCCCNC(=O)OCc1ccccc1)C(=O)NC(C(=O)NC(CSN(C)C(C)=O)C(=O)NO)C(C)OCc1ccccc1 (configuration not stated) | inactive: > 100 µM |
| NC(=O)SCC(=O)Nc1ccc2cccc3c2c1CC3 | inactive: 93.1 µM |
| Cc1cc2c(cc1Cl)Sc1nnc(C)n1S2(=O)=O | inactive: 15.1 µM |
| Nc1ccccc1CC(O)C(=O)O (configuration not stated) | inactive: > 100 µM |

| SMILES | GI50 |
| --- | --- |
| O=C1OC(Cl)C(N=P(c2ccccc2)(c2ccccc2)c2ccccc2)=C1Cl (configuration not stated) | inactive: > 100 µM |
| NC(=O)CC1(O)C=CC(=O)C=C1 | inactive: > 100 µM |
| O=C(Nc1cc(Cl)ccc1Cl)C(=O)C(c1cnc2ccccc2n1)[N+](=O)[O-] (configuration not stated) | inactive: > 100 µM |
| COc1ccc(N2NC(c3ccccc3)(c3ccccc3)C(C)C2=O)cc1 (configuration not stated) | inactive: > 100 µM |
| COc1ccc(/N=C2\C(=N/c3ccc(OC)cc3)N(S(=O)(=O)c3ccccc3)C(=S)N2c2ccc(OC)cc2)cc1 | inactive: > 100 µM |
| Oc1[nH]c(Nc2ccc(F)c(Cl)c2)nc2ncnc1-2 | inactive: > 100 µM |
| CCOC(=O)c1ccc(O)cc1 [ETHYLPARABEN] | inactive: > 100 µM |
| O=C(CC(=O)Nc1ccccc1O)Nc1ccccc1O | inactive: > 100 µM |
| Cc1ccc(O)c(C2=CC3=NNC(=O)C3C(c3cccc(Cl)c3)C2)c1 (configuration not stated) | inactive: 18.7 µM |
| CC(=O)OC(C)(C)[C@H]1O[C@]23O[C@]1(C)C[C@@H](C)[C@@H]2[C@@]1(C)CC[C@@]24C[C@@]25CC[C@H](O[C@@H]2OC[C@@H](O)[C@H](O)[C@H]2O)C(C)(C)[C@@H]5CC[C@H]4[C@]1(C)[C@H]3O | inactive: 7.6 µM |
| O=[N+]([O-])/C=C/c1cccc(F)c1 | inactive: 15.7 µM |
| Cc1nc2c(-c3ccccc3)[nH]c(C)c2c(=O)o1 | inactive: > 100 µM |
| O=P(CCOc1ccccc1OCCP(=O)(c1ccccc1)c1ccc2c(c1)OCCOCCOCCOCCO2)(c1ccccc1)c1ccc2c(c1)OCCOCCOCCOCCO2 (configuration not stated) | inactive: > 100 µM |
| CN(C)CCNS(=O)(=O)N(C)C | inactive: > 100 µM |
| COc1cc2c(cc1OC(=O)CC(C)O)C1C(OC2=O)C(OC(C)=O)C=C2CCN(C)[C@H]21 (some centres not stated) | inactive: 34.4 µM |
| CC(=O)OC[C@@H](COC(=O)/C=C/c1ccc(O)cc1)OC1OC(CO)C(O)C(O)C1O (some centres not stated) | inactive: > 100 µM |
| NC(=O)CCC(NC(=O)Cc1ccccc1)C(=O)O.NC(CCC(=O)NC(=O)Cc1ccccc1)C(=O)O (configuration not stated) | inactive: > 8130 µM |
| O=c1/c(=C/c2c(O)ccc3ccccc23)sc2nc3ccccc3n12 | inactive: > 100 µM |
| NC(=O)C(Nc1c(Cl)cccc1Cl)c1cc2cc(Br)ccc2nc1Cl (configuration not stated) | inactive: > 100 µM |
| COc1cc2c(c(OC)c1OC)-c1ccc(SC)c(=O)cc1C(CC(=O)Oc1ccccc1F)C2 (configuration not stated) | active: 0.065 µM |
| COC1=CC(O)(CC(N)=O)c2ccccc2C1=O (configuration not stated) | inactive: > 100 µM |
